# Among all 44,000 compounds or so, about 340 (0.77%) were called active. Roughly 5% stayed inconclusive and do not appear here. The call rests on the fitted dose curve; in most records, active means well fitted inhibition curve with a large enough effect; inconclusive means small, poorly fitted or top-dose-only effect; inactive means flat fitted curve, though single readings scatter. The list shows a part of the results.
# Experiment: Acumen qHTS Assay for Inhibitors of the mTORC1 Signaling Pathway in MEF (Tsc2-/-, p53-/-) Cells: Sytravon;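 further: plate controls were DMSO for no effect and rapamycin for full effect; nearly all actives have a fitted effect of over 50% in size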
# Conditions: phospho-rpS6 immunofluorescence/PI, 24 h; series mostly up to 38.3 µM; activity change, negative = inhibition: at the top concentration
# How it was run: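 Cell-based qHTS: Tsc2-/- p53-/- MEF, 24 h cpd, 37 °C; fix/perm, anti-phospho-S6 Alexa-488 + PI; Acumen 488 nm scan; pS6/PI ratio, % positive cells; rapamycin 7.5 nM = inhibition ref; PI count = viability.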
row,SMILES,"activity change, negative = inhibition"
1,Cc1c(C(=O)N2CCCCCC2)c(S(=O)(=O)Nc2ccc(OC(F)(F)F)cc2)c(C)n1C,inactive: 0%
2,CCOC(=O)c1ccc(NC(=O)CSc2cc(-c3ccccc3)nc(C)n2)cc1,inactive: -1.95%
3,CC(C)CC(=O)Nc1nnc(S(=O)(=O)N(C)c2ccc(Cl)cc2)s1,inactive: 3.86%
4,Cc1ccc(C)c(N(C)C(=O)CCNC(=O)Cn2cnc3ccccc3c2=O)c1,inactive: -0.178%
5,Cc1c(-c2ccc(Cl)cc2)c(=O)oc2c(CN3CCN(C)CC3)c(O)ccc12,inactive: -20.5%
6,O=C(CNC(=O)c1ccccc1Cl)OCc1cc(=O)n2nc(C3CC3)sc2n1,inactive: -0.249%
7,CC1CCc2c(sc3nc(-c4cc5ccccc5oc4=O)nc(Cl)c23)C1 (configuration not stated),inactive: -4.63%
8,CCOC(=O)C1CCCN(C(=O)c2cc3c(Cl)nc4ccccc4c3s2)C1 (configuration not stated),inactive: -12.4%
9,COc1cccc2sc(N(Cc3cccnc3)C(=O)C3CCCCC3)nc12,inactive: -2.45%
10,CC(C)c1nn2c(=O)cc(COC(=O)c3cccc(NC(=O)c4ccccc4F)c3)nc2s1,inactive: 0%
11,CCOc1ccc(C2c3c(-c4ccccc4O)n[nH]c3C(=O)N2Cc2cccnc2)cc1OC (configuration not stated),inactive: -3.27%
12,CCC1Oc2ccc(C)cc2N(CC(=O)NCc2ccc(F)cc2)C1=O (configuration not stated),inactive: 11.5%
13,O=C(Nc1cccc(Cl)c1)C(Cc1ccccc1)n1cccc1 (configuration not stated),inactive: -6.53%
14,CCOC(=O)c1ccc2c(c1)sc1nc(-c3ccc(OCC)cc3)cn12,inactive: 0.557%
15,COc1cccc(CNC(=O)Cn2c(=O)cc(C(F)(F)F)c3c(C)nn(C)c32)c1OC,inactive: -7.82%
16,O=C(NCCS(=O)(=O)N1CCN(c2ccccc2F)CC1)c1ccccc1C(F)(F)F,inactive: -0.208%
17,Fc1ccc(F)c(Nc2c3c(nc4ccc(Cl)cc24)CCC3)c1,inactive: 2.2%
18,CCN(CC)CCCNC(=O)c1c2c(nc3ccccc13)C(=O)N(C1CCCCC1)C2,inactive: -0.48%
19,COc1ccc(N2C(=O)C(CC(=O)Nc3ccc(Cl)cc3)N(Cc3ccc4c(c3)OCO4)C2=O)cc1 (configuration not stated),inactive: 1.89%
20,COc1ccc(NC(=O)CCc2nc3cccnc3n2-c2ccccc2)c(OC)c1,inactive: -0.393%
21,CCOC(=O)c1c(NC(=O)c2cc(=O)c3cc(Cl)ccc3o2)sc(C)c1C,inactive: -1.51%
22,Cc1cccc(-c2nc(SCc3cc(=O)c4cccc(F)c4[nH]3)n[nH]2)c1,inactive: -14.1%
23,Cc1ccc(C)c(N2CCN(C(=O)CN3CCSc4ccccc43)CC2)c1,inactive: -1.57%
24,COc1cc(C(=O)Nc2ccccc2OCc2cc(=O)n3c(C)csc3n2)cc(OC)c1OC,inactive: 0.989%

row,SMILES,"activity change, negative = inhibition"
1,CCOc1ccc(CCNC(=O)CSc2nnnn2-c2ccccc2Cl)cc1OCC,inactive: -12.5%
2,COCCn1c(=N)c(C(=O)NCC2CCCO2)cc2c(=O)n3ccccc3nc21 (configuration not stated),inactive: -1.15%
3,CCN1CCN(C(c2ccc(C)cc2)c2sc3nc(-c4ccco4)nn3c2O)CC1 (configuration not stated),inactive: -1.83%
4,COc1ccc(Nc2nc3cc(Cl)c(Cl)cc3n3cnnc23)cc1Cl,inactive: -12.6%
5,Cc1ccccc1OCCCn1c(-c2ccc(Cl)cc2)nc2ccccc2c1=O,inactive: 5.47%
6,O=C(Nc1nnc(S(=O)(=O)N2CCCC2)s1)c1ccccc1Br,inactive: -0.65%
7,Cc1ccccc1Cn1nnc2c(=O)[nH]c(C3CCCN(C(=O)c4ccc(F)cc4)C3)nc21 (configuration not stated),inactive: -6.61%
8,COc1ccc(NC(=O)CC2C(=O)N(c3ccc(C)cc3)C(=O)N2Cc2ccc3c(c2)OCO3)cc1 (configuration not stated),inactive: -12.9%
9,CCOC(=O)c1ccc(NC(=O)CSc2nnc(CNC(=O)c3ccc(OC)cc3)n2CC)cc1,inactive: -1.3%
10,CC1CCN(CCCNC(=O)c2cn(C)c3ccc(S(=O)(=O)N(C)C4CCCCC4)cc3c2=O)CC1,inactive: 2.79%
11,COc1cc2c(cc1OC)C(COc1ccc(C(C)C)cc1)N(C(=O)c1ccc(S(=O)(=O)N3CCCC3)cc1)CC2 (configuration not stated),inactive: 5.17%
12,COc1ccc(N2CCN(S(=O)(=O)c3ccc4c(c3)CCCN4C(C)=O)CC2)cc1,inactive: -1.8%
13,CCC(C)n1c(SCc2c(F)cccc2Cl)nc2ccsc2c1=O (configuration not stated),inactive: -12.3%
14,COc1cc(N2C(=O)CSC23C(=O)N(Cc2ccc(C)cc2)c2ccccc23)cc(OC)c1OC (configuration not stated),inactive: 0.831%
15,Cc1ccc2c(c1)N(C(=O)CCC(=O)NCc1cccs1)CCO2,inactive: 0.0685%
16,Cc1ccc(C)c(CN2C(=O)c3ccccc3S(=O)c3ccc(C(=O)N4CCN(c5ccccc5F)CC4)cc32)c1 (configuration not stated),inactive: -8.04%
17,CCc1ccc(-c2nc3cc(NC(=O)c4cc5ccccc5cc4OC)ccc3o2)cc1,inactive: 5.39%
18,COC(=O)c1cc(NC(=O)[C@H](CCS(C)(=O)=O)N2Cc3ccccc3C2=O)cc(C(=O)OC)c1,inactive: 0.171%
19,COc1ccc(Br)c(C(=O)Nc2cc3c(cc2N2CCCCC2)n(C)c(=O)c(=O)n3C)c1,inactive: -3.26%
20,CCc1cc(C(=O)NC(C)c2ccccc2)no1 (configuration not stated),inactive: 6.82%
21,COc1cc(C2CC(=O)N(Cc3ccc(F)cc3)c3ccccc3S2)cc(OC)c1OC (configuration not stated),inactive: 1.26%
22,COc1cc2c(cc1OC)C(COc1ccc(F)cc1)N(C(=O)c1ccc(S(=O)(=O)N3CCCC3)cc1)CC2 (configuration not stated),inactive: 0.606%
23,COC(=O)c1ccccc1NC(=O)c1ccc2nc(Cc3ccccc3)oc2c1,inactive: -6.71%
